Measured values published in article PMC4336329 (PLoS ONE, 2015).
Out of some 310,000 compounds screened, about 2,200 (0.71%) showed an effect of 50% or more. The effect is printed as a negative number. Some of the results follow. Where a SMILES comes first, the peptide text is derived from it. [ ]: non-standard residue; d: D form. ξ: configuration not given here. ξM = CSCCC(N)C(=O)O

Target: human ether-à-go-go-related gene (hERG) potassium channel (human, UniProt Q12809)
Experiment: primary screen, population patch clamp on CHO cells stably expressing hERG

Chain of human ether-à-go-go-related gene (hERG) potassium channel (Q12809 whole entry, looked up): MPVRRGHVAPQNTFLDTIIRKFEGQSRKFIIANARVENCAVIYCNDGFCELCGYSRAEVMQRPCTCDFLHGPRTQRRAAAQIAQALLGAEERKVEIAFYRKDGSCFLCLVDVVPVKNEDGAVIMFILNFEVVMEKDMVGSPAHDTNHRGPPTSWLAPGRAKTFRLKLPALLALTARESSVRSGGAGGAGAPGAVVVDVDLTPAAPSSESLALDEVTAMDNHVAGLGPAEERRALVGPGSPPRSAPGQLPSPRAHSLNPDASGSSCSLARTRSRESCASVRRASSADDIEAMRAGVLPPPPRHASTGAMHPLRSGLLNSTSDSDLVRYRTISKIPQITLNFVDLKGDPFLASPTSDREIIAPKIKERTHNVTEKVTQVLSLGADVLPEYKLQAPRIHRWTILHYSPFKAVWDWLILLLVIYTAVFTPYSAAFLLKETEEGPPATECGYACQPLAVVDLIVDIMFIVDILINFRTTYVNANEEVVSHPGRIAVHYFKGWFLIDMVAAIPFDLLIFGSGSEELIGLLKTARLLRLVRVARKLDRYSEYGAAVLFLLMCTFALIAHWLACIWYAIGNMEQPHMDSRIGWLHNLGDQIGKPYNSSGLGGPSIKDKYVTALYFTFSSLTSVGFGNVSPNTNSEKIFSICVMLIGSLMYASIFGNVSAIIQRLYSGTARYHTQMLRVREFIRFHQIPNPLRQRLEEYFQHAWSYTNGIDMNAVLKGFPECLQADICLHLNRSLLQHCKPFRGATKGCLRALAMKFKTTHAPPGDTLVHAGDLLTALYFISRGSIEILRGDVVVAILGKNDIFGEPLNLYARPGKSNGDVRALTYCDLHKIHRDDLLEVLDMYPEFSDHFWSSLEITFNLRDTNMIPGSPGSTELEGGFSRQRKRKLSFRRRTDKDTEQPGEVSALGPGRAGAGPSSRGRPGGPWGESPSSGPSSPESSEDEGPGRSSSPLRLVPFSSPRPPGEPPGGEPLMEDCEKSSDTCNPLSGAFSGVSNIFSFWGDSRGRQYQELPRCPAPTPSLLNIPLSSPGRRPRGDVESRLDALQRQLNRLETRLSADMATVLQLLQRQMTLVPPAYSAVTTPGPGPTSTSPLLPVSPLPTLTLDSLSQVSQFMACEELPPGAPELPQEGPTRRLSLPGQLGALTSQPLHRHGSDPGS

Structure (SMILES) | hERG current change (%, negative = inhibition) at 1uM [%]
CCOC(=O)CSc1nc(C)c2ccc(C)cc2n1 | 11.3
Cc1nc2cc(NC(=O)NC3CC3)ccc2n1C | 14.8
COC(=O)CNC(=O)C(CCSC)NC(C)=O (stereo not shown) (Ac-[ξM]-Gly-OMe) | 21.8
N#Cc1cc2c(nc1SCc1cccnc1)CCCC2 | -5.64
COc1ccccc1OCC(=O)N1CCN(Cc2ccc3c(c2)OCO3)CC1 | 1.76
Fc1cccc(F)c1/C=N/N1CCOCC1 | 10.6
CCOc1cc(/C=N/Nc2nc(-c3cccs3)c(NC(C)=O)s2)ccc1O | 8.23
O=C(Cn1cc([N+](=O)[O-])ccc1=O)Nc1ccc2c(c1)OCO2 | 6.39
O=C(CNS(=O)(=O)c1ccccc1)Nc1ccccc1Br | -12.9
Cc1ccc(CN2CCN(/N=C/c3sccc3C)CC2)c(C)c1 | 7.02
Cc1ccccc1N1CC2=C(C1=O)C(c1ccccc1)NC(=O)N2C (stereo not shown) | 10.4
Cc1cc(N2CCN(C)CC2)n2nc(-c3ccc(Cl)cc3)nc2n1 | -67.2
COc1nc(-c2ccc3c(c2)OCO3)n(-c2ccc(NC(=O)CSc3ccccc3)cc2)n1 | 1.13
CCc1ccc(C(=O)NNC(=O)c2cccc(N3C(=O)CCC3=O)c2)cc1 | 16.7
Cc1ccc(C)c(NC(=O)COC(=O)c2nc(Cl)ccc2Cl)c1 | 4.58
CCc1cccc(NC(=O)c2cccc3c2C(=O)N(C2CCCCC2)C3)c1 | 17.5
Cc1cc(Cl)ccc1OC(C)C(=O)NCCc1ccc2c(c1)OCCO2 (stereo not shown) | -1.35
O=C(N/N=C/c1ccc(Cl)cc1Cl)C(=O)NC1CC1 | 12.2
COc1ccc(/C=C2\SC(=N)N(c3nccs3)C2=O)cc1OC | 10.5
C[C@@H](CO)NC(=O)c1ccc2c3n(nc2c1)-c1ccc(Cl)cc1CO3 | 9.31

Structure (SMILES) | hERG current change (%, negative = inhibition) at 1uM [%]
O=C(Nc1nc(-c2ccc3c(c2)OCCO3)cs1)C1CCCC1 | 8.23
O=C(NCCN1CCOCC1)c1cccc(Br)c1 | 8.4
c1ccc2c(c1)[nH]c1c3ccccc3sc21 | 15.7
O=C(COC(=O)c1ccc[nH]c1=O)Nc1ccc(S(=O)(=O)N2CCCC2)cc1 | 9.71
CC(C)CNCC(=O)N1c2ccccc2Sc2ccccc21.O=C(O)C(=O)O | 9.68
COc1cccc2cc(C(=O)OC3CCN(C)CC3)c(=O)oc12 | 5.74
Cc1cccc(CCNC(=O)CN(C)S(=O)(=O)c2cnc[nH]2)c1 | 13
O=C(NCCN1CCOCC1)c1cc(Cl)ccc1Cl | 7.78
CCOc1ccccc1-n1c(O)c(C=NCc2ccc3c(c2)OCO3)c(=O)[nH]c1=O | 5.63
CCOc1ccc(NC(=O)CSCc2cnn(-c3ccccc3)c2-n2cccc2)cc1 | -1.74
O=C(CCn1cnnn1)Nc1ccc(Cl)c(Cl)c1 | 16.5
CCCNS(=O)(=O)c1ccc(CCC(=O)N2CCOCC2)cc1 | 15.1
COCCn1c(SCC(=O)c2c(N)n(C3CC3)c(=O)[nH]c2=O)nc2ccccc21 | 15.5
O=C(c1ccco1)N1CCCC(c2nc3c(nnn3Cc3ccccc3)c(=O)[nH]2)C1 (stereo not shown) | 17.9
CCCC(C)C(=O)NC1CCSC1=O (stereo not shown) | -0.703
CNC(=O)N1c2ccccc2NC(=O)CC1C (stereo not shown) | 7.74
COc1ccc(-n2c(-c3cccc(OC)c3)nc(=S)c3c2CCCC3)cc1 | 11.3
O=C(/C=C/c1ccc(OCCCF)cc1)NCc1cccc(Cl)c1 | 3.21
COc1ccc(NC(=O)C(=O)NCC(c2ccco2)N2CCc3ccccc3C2)cc1 (stereo not shown) | -0.912
O=S(=O)(NC1CCCC1)OCC(Cl)(Cl)Cl | 5.14

Structure (SMILES) | hERG current change (%, negative = inhibition) at 1uM [%]
O=C1CCN(C(=O)c2ccc(Cl)cc2)N1 | -14.1
COc1ccc(N2CCN(CCCNS(=O)(=O)c3ccc4c(c3)oc(=O)n4C)CC2)cc1 | 0.0978
CCc1nnc(NC(=O)c2nc(S(=O)(=O)Cc3cccc(C)c3)ncc2Cl)s1 | 5.73
Cc1cccc(N2CCN(C(=O)CCS(=O)(=O)c3ccc(Br)cc3)CC2C)c1 (stereo not shown) | 5.34
COc1ccc(OC)c(CNCc2ccc3c(c2)OCO3)c1.O=C(O)C(=O)O | 5.04
COc1ccc2[nH]c(C(=O)N3CCCN(Cc4ccc(F)cc4)CC3)cc2c1 | 9.35
O=[N+]([O-])c1ccccc1S(=O)(=O)NC1CCCCCCC1 | 7.01
Cc1c(C(=O)N2CCOCC2)c(S(=O)(=O)Nc2cccc(C#N)c2)c(C)n1C | 15.6
O=C1CC(c2ccsc2)c2ccc3ccccc3c2N1 (stereo not shown) | 11.3
COc1ccc(OC)c(NC(=O)CN(C)S(=O)(=O)c2ccc3nc(C)sc3c2)c1 | 0.767
CCn1c(N)c(C(=O)NCCCOC)sc1=S | 21.6
Cc1ccc(Cl)cc1N1CCN(Cc2cc3c(cc2O)CCC3)CC1 | 4.19
CCOC(=O)C1CCN(C(=O)COC(=O)c2ccc3c(c2)C(=O)N(c2ccc(OCC)cc2)C3=O)CC1 | 8.6
COc1ccc(CNC(=O)[C@H](Cc2ccccc2)NC(=O)C2CCNCC2)cc1 | 18.2
Cc1ccc(C(=O)NCC(=O)Nc2ccc3c(c2)OCCO3)cc1 | 19.4
Cc1ccc(/C=C2/C(=O)NC(=O)N(CCc3ccc(F)cc3)C2=O)s1 | 11.9
Cc1ccc(CNC(=O)CC(C)S(=O)(=O)c2ccc3c(c2)NC(=O)C(C)S3)cc1 (stereo not shown) | -1.7
Brc1ccc(OCCCN2CCOCC2)cc1.O=C(O)C(=O)O | -4.29
